# Results: PubChem BioAssay AID1347120 (National Center for Advancing Translational Sciences (NCATS), 2019)
# Out of some 390,000 compounds screened, about 930 (0.24%) were called active. Inconclusive results, whose numbers are uncertain, are shown with a selection of clear calls. Calls come from the whole dose curve; as a rule, active = well fitted activation curve with a large enough effect; inconclusive = small, poorly fitted or top-dose-only effect; inactive = no such curve, though single readings can be large or run the other way. A potency beside an inconclusive call is a rough fit, not a confirmed value.
# Assay: qHTS for Suppressors of FUS Proteinopathy: Primary screen using FUS-linked yeast assay; note: nearly all actives have a fitted effect of over 55% in size;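 for growth rescue (activation): plate controls were DMSO vehicle for no effect and reference control for full effect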
# Conditions: S. cerevisiae FUS-expressing, OD600, 24 h; Potency: growth rescue; growth rescue (activation): at 76.6 µM (top of the series)
# In short: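 Cultures pregrown in 2.5% raffinose medium are shifted to minimal medium containing 2% galactose to express toxic FUS. Compounds are tested at several concentrations. After 24hr at 30C, growth is quantified at 600 nm absorbance.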
# Potency is the fitted concentration of half-maximal effect; tags give direction and shape of the fitted curve.
SMILES,Potency,growth rescue (activation)
CC1CCN(S(=O)(=O)c2ccc(C(=O)Nc3nnc(C4=COCCO4)o3)cc2)CC1,"inconclusive: 10 µM [activator, partial curve, poor fit]",–
COc1ccccc1C(c1nnnn1Cc1ccccc1)N1CCN(c2nc3ccccc3s2)CC1 (centres undefined),"inconclusive: 10 µM [activator, partial curve]",–
Cc1cccn2c(=O)c(/C=C(\C#N)c3nc4ccccc4s3)c(Oc3ccc(F)cc3)nc12,"inconclusive: 12.6 µM [activator, partial curve]",–
CCCOc1ccc(C2NC(=S)NC(c3ccccc3)=C2C(=O)Nc2ccc(C)cc2)cc1OC (centres undefined),"inconclusive: 20 µM [activator, partial curve]",–
CC(C)(C)c1csc(NNC(=O)c2ccc(Br)cc2)n1,"inconclusive: 44.7 µM [activator, partial curve, poor fit]",–
Cc1cc(C)c(S(=O)(=O)Nc2ccc3oc4c(c3c2)C(=O)CC(C)(C)C4)cc1C,"inconclusive: 50.1 µM [activator, single point]",–
CC(=O)N1CCN(S(=O)(=O)c2ccc3c(c2)CC(=O)N3)CC1,"inconclusive: 11.2 µM [activator, single point]",–
Cc1nc2nc(SCC(=O)Nc3ccccc3Cl)nn2c(C)c1Cc1ccccc1,"inconclusive: 50.1 µM [activator, single point]",–
COc1ccc(NC(=S)Nc2ccc3c(c2)c(=O)n(C)n3-c2ccccc2)cc1,"inconclusive: 44.7 µM [activator, single point]",–
CCOc1cc(/C=N\Nc2ccc([N+](=O)[O-])cc2)ccc1OCC(=O)Nc1ccc(C)c(C)c1,–,inactive: 28.3%
Cc1ccc(S(=O)(=O)Nc2cccc3c2O[C@H](CN(C)C(=O)Nc2cccc4ccccc24)[C@H](C)CN([C@H](C)CO)C3=O)cc1,"inconclusive: 44.7 µM [activator, single point]",–
CCOC(=O)[C@]12CCCC=C1N(Cc1cccc3ccccc13)C(=O)[C@H](CC(=O)NCc1cccc(C(F)(F)F)c1)C2,"inconclusive: 12.6 µM [activator, partial curve]",–
COc1cccc(CNC(=O)c2cc3cccc4c3n2CC(C)S4)c1OC (centres undefined),"inconclusive: 39.8 µM [activator, single point]",–
Cc1n[nH]c(C)c1S(=O)(=O)N1CCCCCC1,"inconclusive: 10 µM [activator, single point]",–
CCn1cc(C(=O)NCC(OC)OC)c(=O)c2cc(S(=O)(=O)N3CCCC3)ccc21,–,inactive: 1.48%
Cc1cc(SCC(=O)NN)c2cc(Br)ccc2n1,"inconclusive: 50.1 µM [activator, partial curve, poor fit]",–
COCCNC(=O)CSc1cc(-c2ccccc2)c2ccc(OC)cc2n1,"inconclusive: 39.8 µM [activator, single point]",–
CCC(C(=O)Nc1ccc(C(=O)OC)cc1)n1nc(-c2ccc(C)cc2)c2c(c1=O)CCCC2 (centres undefined),"inconclusive: 31.6 µM [activator, partial curve, poor fit]",–
C=C(C)CSc1cc(C)c(C#N)c2nc3ccccc3n12,"inconclusive: 44.7 µM [activator, single point]",–
COc1ccccc1NC(=O)C(=O)N(c1cccnc1)C(C(=O)NC(C)(C)C)c1ccccc1 (centres undefined),–,inactive: -19.1%
COc1cccc(-n2cnnn2)c1,–,inactive: -13%
O=C(Cc1ccccc1)N(Cc1cccnc1)c1nc2c(F)cccc2s1,–,inactive: 7.78%

SMILES,Potency,growth rescue (activation)
O=C1CCC/C=C\C[C@@H](CC(=O)N(CCO)Cc2ccccc2)C(=O)NCCO1,–,inactive: -10.1%
COc1ccc2c(-c3ccc(OCCN4CCCCC4)cc3)c(-c3ccccc3OC)sc2c1,"inconclusive: 17.8 µM [activator, single point]",–
COCCNc1nc(-c2ccc(Cl)cc2C)c2sccc2n1,–,inactive: 42.3%
O=C1C2C3C=CC(C4CC34)C2C(=O)N1/N=C/c1ccc([N+](=O)[O-])o1 (centres undefined),–,inactive: 3.16%
CCC12CC3CC(C1)CC(C(=O)O)(C3)C2,–,inactive: 15.2%
CCOC(=O)c1ccc(NC(=O)CSc2nnc(C3CCCCC3)n2C)cc1,"inconclusive: 25.1 µM [activator, partial curve, poor fit]",–
O=C(Nc1ccccc1N1CCOCC1)c1ccccc1NS(=O)(=O)c1ccc(F)c(F)c1,"inconclusive: 35.5 µM [activator, partial curve, poor fit]",–
CC(C)(C)S(=O)N1Cc2cc(C(=O)N[C@@H]3CCN(Cc4ccccc4)C3)nc(-c3cccc(-c4cc5ccccc5o4)c3)c2[C@@H]1CCO (some centres undefined),"inconclusive: 14.1 µM [activator, partial curve, poor fit]",–
COc1cccc(N2C(=O)C(CC(=O)Nc3ccc(Cl)cc3)N(Cc3ccc4c(c3)OCO4)C2=O)c1 (centres undefined),"inconclusive: 35.5 µM [activator, single point]",–
COC(=O)c1cc(=O)n(Cc2ccc(OC)c(OC)c2)c(=Nc2ccc(F)cc2)s1,"inconclusive: 35.5 µM [activator, partial curve, poor fit]",–
CN(Cc1ccccc1)C(=O)c1cccc(NC(=O)Cc2ccc(NC(=O)C3CCCN(C(=O)C4CCCCC4)C3)cc2)c1 (centres undefined),"inconclusive: 28.2 µM [activator, single point]",–
O=C(/C=C/c1ccc(Cl)c(Cl)c1)n1cccn1,–,inactive: 5.84%
COc1c(C)cc(C(=O)C2CCCN(S(=O)(=O)N(C)C)C2)cc1C (centres undefined),–,inactive: 0.461%
CCOc1ccccc1Oc1cn[nH]c1-c1ccc(OC)cc1O,"inconclusive: 39.8 µM [activator, single point]",–
CCc1nnc(NC(=O)c2nc(S(=O)(=O)Cc3cccc(C)c3)ncc2Cl)s1,inactive,–
COc1ccc(/C(N)=N/OC(=O)c2cccc([N+](=O)[O-])c2)cc1,–,inactive: -8.12%
Cc1cc2n(n1)C(c1sccc1C)Nc1ccccc1-2 (centres undefined),–,inactive: 11.3%
Cc1cnn(-c2cc(Oc3ccccc3)ncn2)c1,–,inactive: 67.8%
COc1ccc(C(=O)OCn2nnc3ccccc3c2=O)cc1,–,inactive: 16.1%
CCOC(=O)c1[nH]c(C)c(CCC(=O)Nc2c(C)cc(C)cc2C)c1C,–,inactive: -17.7%
COC(=O)[C@@]12C[C@@H](CC(=O)N3CCOCC3)C(=O)N(Cc3cccc4ccccc34)C1=CCC(C)(C)C2,"inconclusive: 12.6 µM [activator, partial curve, poor fit]",–
CCCn1c(SCc2nc(-c3ccccc3C)no2)nnc1-c1ccc(Cl)cc1,"inconclusive: 35.5 µM [activator, single point]",–

SMILES,Potency,growth rescue (activation)
CC(=O)Nc1ccc(C(=O)COC(=O)c2nc3nc(C)cc(C)n3n2)cc1,"inconclusive: 50.1 µM [activator, single point]",–
CCOC(=O)c1sc2nc(N3CCOCC3)c3c(c2c1N)CCN(Cc1ccccc1)C3,–,inactive: 35.1%
Cc1ccc(C)c(OCc2nc3ccc(S(=O)(=O)Nc4c(C)n(C)n(-c5ccccc5)c4=O)cc3[nH]2)c1,active: 35.5 µM,–
CCOc1ccc(NC(=O)CC2C(=O)N(c3ccccc3)C(=O)N2CCc2ccc(OC)cc2)cc1 (centres undefined),"inconclusive: 17.8 µM [activator, partial curve, poor fit]",–
CCc1ccc(N2CC(C(=O)Nc3ccc4c(c3)OCCO4)CC2=O)cc1 (centres undefined),"inconclusive: 12.6 µM [activator, partial curve, poor fit]",–
CC(C)C[C@@H](CN1CCCC1CN1C(=S)NC[C@@H]1Cc1ccc(O)cc1)N1C[C@H](Cc2ccc(O)cc2)N(CC2CCCCC2)C1=S (some centres undefined),"inconclusive: 28.2 µM [activator, single point]",–
Cc1ccsc1CN(C)C(=O)CN1C(=O)NC(c2ccccc2)(c2ccccc2)C1=O,"inconclusive: 20 µM [activator, partial curve, poor fit]",–
CCCCCC(=O)N1CC2(CC(c3cccc(NC(=O)CC(c4ccccc4)c4ccccc4)c3)=NO2)C[C@@H]1C(N)=O (some centres undefined),"inconclusive: 15.8 µM [activator, partial curve, poor fit]",–
COc1ccc(S(=O)(=O)N2CCCCCC2)cc1C(=O)N1CCN(c2ccc(F)cc2)CC1,"inconclusive: 22.4 µM [activator, single point]",–
Cc1ccc2c(=O)c(C(=O)c3ccccc3)cn(CC(=O)Nc3ccc4c(c3)OCCO4)c2n1,–,inactive: 3.73%
CCOc1ccc(N(CC(=O)Nc2cccc(N(C)S(C)(=O)=O)c2)S(=O)(=O)c2ccccc2)cc1,"inconclusive: 50.1 µM [activator, single point]",–
COc1cc(/C=N/NC(=O)c2ccccn2)ccc1OC(=O)c1ccccc1Br,"inconclusive: 44.7 µM [activator, single point]",–
COc1ccc(CCNC(=O)CCn2c(=O)c3ccccc3n(CC(=O)Nc3ccccc3F)c2=O)cc1OC,–,inactive: 14%
CCCCC[C@@H](C)N1C[C@H](COCc2ccccc2)Oc2cc(N3CC[C@H](N(C)C)C3)ccc2S1(=O)=O,"inconclusive: 31.6 µM [activator, single point]",–
Cc1onc(-c2ccccc2Cl)c1C(=O)NCc1ccc2c(c1)cc(C)n2C,"inconclusive: 28.2 µM [activator, single point]",–
COCc1cc(C)nc(N2CCc3ccccc32)c1C#N,–,inactive: 17.4%
O=C(c1ccc(Cl)cc1)N1CCC(Oc2cccnc2)CC1,–,inactive: 10.4%
Cc1nc2ccccc2n1CCc1nc2c3ccccc3nc(SCc3cccc(F)c3)n2n1,–,inactive: -14.9%
CCOc1ccc(-n2c(SCc3nc(-c4ccc(OC)cc4)no3)nnc2-c2ccncc2)cc1,"inconclusive: 28.2 µM [activator, partial curve, poor fit]",–
O=C(Nc1ccc(-n2cnnn2)cc1)C1CCCCC1,–,inactive: 5.17%
